# Publication PMC4336329 (PLoS ONE, 2015)
# In all, about 310,000 compounds went through this assay and about 14,000 (4.5%) showed an effect of 50% or more. The effect is printed as a negative number. Some of the results follow.
# Biological target: human ether-à-go-go-related gene (hERG) potassium channel (human, UniProt Q12809)
# Test: primary screen, population patch clamp on CHO cells stably expressing hERG
# 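Also: peak tail current of the secondary pulse compared with the same well before compound.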
# human ether-à-go-go-related gene (hERG) potassium channel, sequence (Q12809 whole entry, looked up): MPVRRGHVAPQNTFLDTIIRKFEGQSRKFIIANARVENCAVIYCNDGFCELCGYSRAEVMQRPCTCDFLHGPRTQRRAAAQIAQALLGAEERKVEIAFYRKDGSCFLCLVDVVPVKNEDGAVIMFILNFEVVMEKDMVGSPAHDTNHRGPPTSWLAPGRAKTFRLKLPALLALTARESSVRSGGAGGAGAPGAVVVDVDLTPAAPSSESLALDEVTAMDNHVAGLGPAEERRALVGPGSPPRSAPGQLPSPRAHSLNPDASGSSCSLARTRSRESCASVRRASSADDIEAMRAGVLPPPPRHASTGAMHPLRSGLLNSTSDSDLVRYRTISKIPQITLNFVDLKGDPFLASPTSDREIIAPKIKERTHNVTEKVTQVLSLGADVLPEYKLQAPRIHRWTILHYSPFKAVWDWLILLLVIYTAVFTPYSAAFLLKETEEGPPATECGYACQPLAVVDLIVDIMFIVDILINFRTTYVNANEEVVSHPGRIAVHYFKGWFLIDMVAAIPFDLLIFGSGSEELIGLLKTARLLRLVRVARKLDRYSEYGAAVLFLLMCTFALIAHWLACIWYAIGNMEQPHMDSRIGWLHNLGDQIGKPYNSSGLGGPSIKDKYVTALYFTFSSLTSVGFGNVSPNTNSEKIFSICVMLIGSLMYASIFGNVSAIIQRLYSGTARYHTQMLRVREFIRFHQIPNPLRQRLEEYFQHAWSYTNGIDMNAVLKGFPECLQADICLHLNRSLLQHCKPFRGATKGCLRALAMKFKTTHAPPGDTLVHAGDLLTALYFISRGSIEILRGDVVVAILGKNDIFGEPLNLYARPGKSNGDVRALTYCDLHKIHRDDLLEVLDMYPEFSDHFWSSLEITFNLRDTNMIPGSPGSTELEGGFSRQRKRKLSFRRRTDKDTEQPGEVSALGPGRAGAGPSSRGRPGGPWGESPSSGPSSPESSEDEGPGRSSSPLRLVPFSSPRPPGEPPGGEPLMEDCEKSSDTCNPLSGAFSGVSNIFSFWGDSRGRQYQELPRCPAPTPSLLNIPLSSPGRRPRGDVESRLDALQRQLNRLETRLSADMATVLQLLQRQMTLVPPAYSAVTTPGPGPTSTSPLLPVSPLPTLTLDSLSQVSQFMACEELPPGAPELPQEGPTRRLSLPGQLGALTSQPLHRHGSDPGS
row,SMILES,"hERG current change (%, negative = inhibition) at 10uM [%]"
1,COc1cccc(CN2CC(C(=O)N(C)Cc3ccc(C)cc3)CCC2=O)c1 (stereo not shown),-7.44
2,Cc1c(NC(=O)COc2c(F)c(F)c(F)c(F)c2F)c(=O)n(-c2ccccc2)n1C,0.328
3,CN(C)c1cc[n+](Cc2ccccc2)cc1.[Br-],-1.47
4,COc1cc2nc(Nc3ccc(C)c(C)c3)nc(N)c2cc1OC,-34.7
5,O=C(CSc1nncs1)Nc1ccc(Cl)cn1,-11.5
6,Cl.OC(CCCN1CCCCC1)(c1ccccc1)c1ccccc1,-44
7,CCn1c(=S)sc2c(=O)n(CC(=O)Nc3ccccc3C(F)(F)F)c(C)nc21,10.6
8,Cc1snc(SCC(=O)N/N=C(\N)COc2ccc(F)cc2)c1C#N,5.44
9,COc1ccccc1Cn1c(/C=C/c2ccccc2)nc2ccccc21,6.06
10,CCOC(=O)N1CCC(NC(=O)c2ccc(N3CCC4(CC3)OCCO4)c([N+](=O)[O-])c2)CC1,-11.5
11,CC(=O)c1c(C)[nH]c(C(=O)COc2cc(C)ccc2C(C)C)c1C,14.1
12,Cc1ccccc1Cn1cc(NC(=O)CSc2nc3c(c(C(F)(F)F)n2)CCc2ccccc2-3)cn1,2.96
13,Cc1ccc(C(=O)Nc2cccc(-c3ccc(N4CCOCC4)nn3)c2)cc1C,-20.9
14,NC(=O)C1CCCN(C(=O)c2ccc3oc(Cc4ccc(Cl)cc4)nc3c2)C1 (stereo not shown),8.01
15,COC(=O)COc1ccc2occ(C(C)=O)c2c1,-3.74
16,O=C(Nc1ccc(Cc2ccc(NC(=O)C3CC3)c(O)c2)cc1O)C1CC1,8.31
17,CC(C)Nc1nc(-c2ccncc2)nc(-c2ccc(Cl)cc2)c1C#N,13.7
18,COc1ccccc1C1(O)CC2CCC(C1)N2S(=O)(=O)c1ccc(C(C)=O)cc1 (stereo not shown),10.5
19,O=C(O)CC(NC(=O)C12CC3CC(CC(C3)C1)C2)c1ccc(OC2CCCC2)cc1 (stereo not shown),8.73
20,O=C(Nc1nccs1)C1CC(=O)N(c2ccc(F)cc2)C1 (stereo not shown),2.57
21,O=c1sc2ccccc2c(N2CCCCC2)c1[N+](=O)[O-],-8.52
22,O=C(c1cnccn1)N1CCN(c2ccccc2)CC1,-12.2
23,Cc1cccc(NC(=S)N(C)C2CCCCC2)c1,5.51
24,O=C(CCCC(=O)c1ccccc1)NCCc1ccccc1F,-7.82
25,COc1ccc(S(=O)(=O)N2CCOCC2)cc1NC(=O)CC1CCCC1,-6.2
26,COc1ccc(NC(=O)NC(C)c2ccccc2)cc1 (stereo not shown),13.7
27,CCN(CC(=O)Nc1c(F)cccc1F)C(=O)CNC(=O)c1ccc2ccccc2c1,-6.5
28,CCCCC(=O)NCCNC(=O)c1cc(OCC(F)(F)F)ccc1OCC(F)(F)F,6.42

row,SMILES,"hERG current change (%, negative = inhibition) at 10uM [%]"
1,O=C(c1ccc2c(=O)n3c(nc2c1)CCCCC3)N1CCN(C(c2ccccc2)c2ccccc2)CC1,-12.8
2,CCCCN(C(=O)CN1C(=O)C2CCCCC2C1=O)c1c(N)n(Cc2ccccc2)c(=O)[nH]c1=O (stereo not shown),8.3
3,Cc1c(Cl)cccc1NC(=O)CNC(=O)c1ccco1,16.6
4,Cc1cc(C)nc(SCc2nnc(SCC(=O)Nc3ccc(C)c(C)c3)n2Cc2ccco2)n1,4.18
5,Cc1cccc(NC(=O)C2C3C=CC4(O3)C2C(=O)N(CCCN2CCCC2)C4C(=O)NC2CCCC(C)C2C)c1 (stereo not shown),3.35
6,CCCN(CCC)C(=O)CSc1ncccc1C(=O)O,11
7,Cc1ccc2nc(SCCCCOc3ccccc3)[nH]c2c1,7.26
8,COc1ccc(C)c2sc(N(CCN(C)C)C(=O)c3ccc4ccccc4c3)nc12.Cl,-20.7
9,CCN(CC)C(=O)c1ccc(N)cc1,-1.08
10,COc1cc(CO)cc(-c2cc(CO)cc(OC)c2OC)c1OC,10.3
11,Cc1cccc(/C=N/NC(=O)c2cc(-c3cccnc3)nc3c2c(C)nn3-c2ccccc2)c1,-11.3
12,COc1ccccc1CNC(=O)c1ccncc1,15
13,CCn1c2ccccc2c2cc(C#N)c(N)nc21,6.07
14,COC(=O)c1sc(N)c(C(=O)OC)c1COC(=O)CCNS(=O)(=O)c1ccc(C)cc1,-20.9
15,CC1(C)C2([N+](=O)[O-])CN3CC1([N+](=O)[O-])CN(C2)C3c1cccnc1 (stereo not shown),26
16,CCN1CCN(S(=O)(=O)c2ccc(F)c(C(=O)Nc3c(F)cc(F)cc3Br)c2)CC1,-17.1
17,CCOc1ccc(Nc2oc(-c3ccco3)nc2C#N)cc1,-1.69
18,O=C(Nc1ccc(-c2nnc(-c3ccco3)o2)cc1)C(c1ccccc1)c1ccccc1,4.27
19,Cc1cccc(C(=O)OCC(=O)N2CC(C)OC(C)C2)c1C (stereo not shown),11.9
20,CCOc1cc(/C=C2\SC(=N)N(c3nonc3N)C2=O)ccc1OCC(N)=O,7.01
21,CCCN1CCN(C(=O)CCCNC(=O)Cn2cnc3sc(C)c(C)c3c2=O)CC1,14
22,Cc1cccc(NC(=O)NNC(=O)COc2ccc([N+](=O)[O-])cc2)c1C,0.136
23,O=C(O)CC1NC(=O)N(c2ccc(Cl)cc2)C1=O (stereo not shown),19.5
24,CCN(CC)S(=O)(=O)c1cc(C(=O)O)c(Cl)cc1Cl,25.4
25,COc1ccc(OC)c(C2=NOC(C(=O)NCc3cccnc3)C2)c1 (stereo not shown),-62
26,CCOC(=O)C(/C=C(\C#N)C(=O)OCC)=C(/N)N1CCN(c2ccc(OC)cc2)CC1,2.49
27,COc1ccc(N(C(=O)c2ccco2)C(C(=O)NC2CCCC2)c2cccs2)c(OC)c1 (stereo not shown),-12.8
